Test results published in PubChem BioAssay AID1745853 (National Center for Advancing Translational Sciences (NCATS), 2022).
The other results are listed elsewhere or left out. Shown are side measurements of this screen, not its main read-out; they come without a call.

Assays:
Experiment in all cases: Primary Screen for Target Class Profiling of Small Molecule Inhibitors of Methyltransferases
[1] = target: Glycine N-methyltransferase (Homo sapiens) (UniProt Q14749); conditions: purified enzyme, MTase-Glo SAH luminescence; measured here: GNMT inhibition; at 40 µM; stronger effect = lower value
Procedure, shortened: (§1)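 Each enzyme was assayed with SAM and its substrate. SAH formation detected by MTase-Glo luminescence; single-point 40 uM screen[…].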

[2] = target: Guanidinoacetate N-methyltransferase (Homo sapiens) (UniProt Q14353); conditions: purified enzyme, MTase-Glo SAH luminescence; measured here: GAMT inhibition; at 40 µM; stronger effect = lower value
Procedure, shortened: as §1

[3] = target: Histamine N-methyltransferase (Homo sapiens) (UniProt P50135); conditions: purified enzyme, MTase-Glo SAH luminescence; measured here: HNMT inhibition; at 40 µM; stronger effect = lower value
Procedure, shortened: as §1

[4] = target: Nicotinamide N-methyltransferase (Homo sapiens) (UniProt P40261); conditions: purified enzyme, MTase-Glo SAH luminescence; measured here: NNMT inhibition; at 40 µM; stronger effect = lower value
Procedure, shortened: as §1

[5] = target: Phenylethanolamine N-methyltransferase (Homo sapiens) (UniProt P11086); conditions: purified enzyme, MTase-Glo SAH luminescence; measured here: PNMT inhibition; at 40 µM; stronger effect = lower value
Procedure, shortened: as §1
On the % scale 0 is the no-effect control and ±100 the full control effect.

Row | SMILES | activity change, negative = inhibition [1] | activity change, negative = inhibition [2] | activity change, negative = inhibition [3] | activity change, negative = inhibition [4] | activity change, negative = inhibition [5]
1 | COc1cc2c(cc1O)CC(O)(CO)C(CO)C2c1ccc(OC2OC(CO)C(O)C(O)C2O)c(OC)c1 (stereo not given) | 0% | -3.32% | -3.85% | -15.3% | 0.293%
2 | Clc1cccc2c1NC(c1ccc(Br)cc1)C1CC=CC21 (stereo not given) | -10% | -3% | -7.86% | -7.13% | -10.6%
3 | Cc1ccc(S(=O)(=O)NCCn2c(C(F)(F)F)nc3ccccc32)cc1 | -6.45% | 0.355% | 0.459% | 6.59% | 6.09%
4 | Cc1ccc(C)c(NC(=O)[C@@H]2CCCN2S(=O)(=O)c2cccc3cccnc23)c1 | -19.3% | 1.13% | 6.94% | -13.9% | -2.12%
5 | CN1CC(=O)N(C2CCCCC2)Cc2c(NCCO)ncnc21 | -8.22% | -9.11% | -5.22% | -18.2% | -10.8%
6 | CC(C)CNC(=O)c1ccc2c(=O)n(CC(C)C)c3nn(CC(=O)NC(C)(C)C)c(=O)n3c2c1 | 3.59% | 0.977% | 6.22% | 2.56% | 4.3%
7 | CC(C)Oc1ccc(CNC(=O)c2cc3n(n2)CC(C)(C(=O)NC2CCCCCC2)N(C)C3=O)cc1 (stereo not given) | 0.789% | 1.91% | -8.71% | -0.209% | -4.34%
8 | COc1cc2c(cc1OC)CN(C(=O)/C=C/c1c(-c3ccccc3)n(C)c3ncccc13)CC2 | -40.4% | -2.85% | -9.73% | -59.9% | -34.7%
9 | CC1(C)CC[C@]2(C(=O)O[C@@H]3O[C@H](CO)[C@@H](O)[C@H](O)[C@H]3O)CC[C@]3(C)C(=CCC4[C@@]5(C)CC[C@H](O[C@@H]6O[C@H](C(=O)O)[C@@H](O[C@@H]7O[C@H](CO)[C@@H](O)[C@H](O)[C@H]7O)[C@H](O)[C@H]6O[C@@H]6O[C@H](CO)[C@@H](O)[C@H](O)[C@H]6O)C(C)(C)C5CC[C@]43C)C2C1 (stereo not given in full) | 1.04% | 14.1% | 9.11% | 1.41% | 9.81%
10 | CCCn1c(=O)c2ccc(C(=O)NC(C)C)cc2n2c(=O)n(CC(=O)NC(C)(C)C)nc12 | 1.77% | -0.732% | 2.56% | -5.16% | -2.71%
11 | NC1CCCCN(Cc2ccc(Cl)c(F)c2)C1 (stereo not given) | -0.143% | 0.957% | -22.7% | -4.02% | -16.7%
12 | CCCN1C(=O)c2cc(C(=O)NCc3ccc(OC)c(OC)c3)nn2CC1(C)C(=O)NC1CCCC1 (stereo not given) | -0.482% | 3.59% | -2.08% | -5.47% | -2.58%
13 | C[C@]1(CO)[C@H]2Cc3sc(-c4ccccc4)nc3[C@@H](CC(=O)N3CCOCC3)[C@]2(C)CC[C@H]1O | -3.25% | -1.01% | -0.442% | -4.17% | 1.36%
14 | C#CCNC(=O)C[C@@H]1C[C@@H](C(C)C)[C@H](CNS(C)(=O)=O)C=C1C | -4.56% | -6.77% | -2.54% | -5.74% | -5.49%
15 | O=C(NCc1nnc2n1C(C(=O)NCc1cccnc1)CC2)c1cccnc1 (stereo not given) | -3.31% | -3.18% | -3.4% | -11.1% | -6.81%
16 | Cc1ccc(C)c(C(=O)N2CC(c3nnc(-c4ccncc4)o3)C3(CCOCC3)C2)c1 (stereo not given) | 0.252% | 1.77% | 2.1% | -2.17% | -1.01%
17 | CCOc1ccc(NC(=O)N2CCn3c(C)ccc3C2CC)cc1 (stereo not given) | -0.387% | 0% | -3.66% | 1.64% | -1.18%
18 | CC1(C(=O)NC2CCCCC2)Cn2c(cc3ccccc32)C(=O)N1Cc1ccco1 (stereo not given) | -5.02% | 3.94% | -1.38% | -1.1% | -2.32%

Row | SMILES | activity change, negative = inhibition [1] | activity change, negative = inhibition [2] | activity change, negative = inhibition [3] | activity change, negative = inhibition [4] | activity change, negative = inhibition [5]
19 | COc1ccc(NS(=O)(=O)c2ccc3c(c2)n(C)c(=O)n3C)cc1OC | 11.7% | 0% | 12.3% | 3.08% | 5.19%
20 | COCC1CN(C)CC12CCN(S(=O)(=O)c1cccs1)CC2 (stereo not given) | -7.93% | -4.68% | -7.41% | -15.7% | -6.2%
21 | Nc1nc(C2CC(N)C2)cc(N2CCCN(Cc3cccs3)CC2)n1 (stereo not given) | -5.55% | -7.57% | -46.8% | -10.1% | -10.1%
22 | C[C@@H]1O[C@@H](O[C@H]2[C@@H]3C=CO[C@@H](O[C@@H]4O[C@H](CO)[C@@H](O)[C@H](O)[C@H]4O)[C@@H]3[C@@]3(CO)O[C@@H]23)[C@H](OC(=O)/C=C/c2ccc(O)cc2)[C@H](O)[C@H]1O | 2.14% | 4.29% | -27.1% | -8.75% | 5.59%
23 | CCC1(C(=O)Nc2cc(OC)ccc2OC)CCCCC(=O)N1 (stereo not given) | -0.519% | 1.26% | 2.09% | -3.31% | -1.87%
24 | O=C(CCc1nnc2n(Cc3ccccc3Cl)c(=O)c3ccccc3n12)NCCN1CCOCC1 | -0.35% | 1.44% | 10.4% | 10.6% | 3.75%
25 | Cc1ccc(CNC(=O)CSc2nnc3n(C)c(=O)c4ccc(C(=O)NC5CCCCC5)cc4n23)cc1 | -1.62% | 0% | -0.983% | 1.24% | 5.28%
26 | COc1ccc(C(=O)COC(=O)C(Cc2c[nH]c3ccccc23)NC(=O)c2ccc(Cl)cc2)cc1 (stereo not given) | 14.1% | 3.86% | 5.44% | 6.51% | 10.3%
27 | Cc1cccc(N(C)C(=S)Oc2ccc3c(c2)CCC3)c1 | 7.61% | 1.03% | 7.4% | -17% | -1.36%
28 | O=C(NCc1ccccc1)c1csc(Nc2ccncn2)n1 | -15.7% | -3.26% | -8.95% | -18.5% | -7.48%
29 | CC(C)C(C#N)O[C@@H]1O[C@H](CO[C@@H]2OC[C@](O)(CO)[C@H]2O)[C@@H](O)[C@H](O)[C@H]1O (stereo not given in full) | 1.51% | 4.4% | 9.2% | -9.04% | 2.36%
30 | CCCn1c(=O)c2ccc(C(=O)NC(C)CC)cc2n2c(=O)n(Cc3cccc(C)c3)nc12 (stereo not given) | -1.55% | 2.22% | 1.16% | -8.88% | -1.84%
31 | CCOc1ccc(N(C(=O)C2CCCCC2)S(=O)(=O)c2ccc3c(c2)n(C)c(=O)n3C)cc1 | -6.56% | 5.3% | -4.17% | -17.1% | -2.56%
32 | CCc1cccc(NC(=O)Cn2nc3n(C(C)C)c(=O)c4ccc(C(=O)NCC(C)C)cc4n3c2=O)c1 | 8.35% | 1.75% | 11.2% | 3.46% | 7.52%
33 | CNC[C@H](O)c1ccc(O)c(O)c1 | -35.3% | 2.77% | 0.404% | -9.95% | -12.3%
34 | COc1ccc(CN2C(=O)c3ccc(-c4ccco4)n3CC2(C)C(=O)NC2CCCC(C)C2C)cc1 (stereo not given) | 1.69% | 0% | 4.46% | -2.77% | -1.94%
35 | CCn1cc(CN2CC(Oc3ccc(-c4noc(-c5cccnc5)n4)cc3)C2)cn1 | -15.8% | -11.8% | -42.5% | -20.4% | -8.25%
